Measurements taken from PubChem BioAssay AID1671193 (National Center for Advancing Translational Sciences (NCATS), 2021).
About 180 (0.12%) of roughly 150,000 compounds were called active. The shares of active, inactive and inconclusive entries below differ from those in the screen. Calls follow the shape of the dose curve; as a rule, active = well fitted cell-killing curve with a large enough effect; inconclusive = small, poorly fitted or top-dose-only effect, or effect the other way; inactive = flat fitted curve, though single readings scatter. Where the call is inconclusive, the potency comes from a doubtful curve fit.

Assay: GF-AFC viability counterscreen for inhibitors of alpha-synuclein gene (SNCA) expression; also: nearly all actives have a fitted effect of over 30% in size;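 as to activity change, negative = cytotoxicity: 0% = DMSO-treated cells and -100% = medium-only wells without cells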
Details: HEK-293-SNCA-luc viability, GF-AFC fluorescence, 24 h; activity change, negative = cytotoxicity: at 57.1 µM (top of the series) unless noted
Summary of the method: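 Cytotoxicity counterscreen: after 24 h compound treatment of genome-edited SNCA-luciferase HEK-293 cells, live-cell protease substrate GF-AFC read by fluorescence after 30 min; activity scaled between DMSO (0%) and medium-only (-100%), curves Hill-fitted.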
Potency is read from the fitted curve at half-maximal effect; tags tell the direction and shape of the fitted curve.

SMILES | Potency | activity change, negative = cytotoxicity
CC(=O)Nc1ccc(-c2c(-c3ccc4c(c3)OCO4)nn(-c3cc(C)ccc3C)c2OC(C)=O)cc1 | inconclusive: 5.62 µM [cytotoxic, partial curve, poor fit] | –
COc1cc(CN(C)C(=O)c2c(C)noc2-c2cccc(F)c2)cc(OC)c1OC | inactive | –
COc1ccc(CCNC(=O)CSc2nc(-c3ccc(F)cc3)cc(C(F)(F)F)n2)cc1OC | inconclusive: 3.16 µM [cytotoxic, full curve, poor fit] | –
CC(=O)Nc1cccc2ccc(OCc3nnc(C(=O)N4CCC[C@@H]4c4ccc(Br)cc4)n3Cc3ccccc3)cc12 | inconclusive: 31.6 µM [cytotoxic, single point] | –
Cc1ccc(CN(C)C2CCc3nn(C)c(=O)n3CC2)nc1 (centres undefined) | inactive | –
COc1ccc(C)cc1NC(=O)C1CCN(C(=O)c2ncn3c2COC(c2ccc(F)cc2)C3)CC1 (centres undefined) | inactive | –
COc1ccc(-c2nc(C)nc3c2CN(C(=O)c2ccc4c(c2)OCO4)CC3)cc1 | inconclusive: 20 µM [cytotoxic, single point] | –
C=Cc1ccc(Cn2c(C(=O)O)c(CNCc3ccccc3)c3ccc(C)cc32)cc1 | inconclusive: 28.2 µM [cytotoxic, single point] | –
Cc1nn2c(N3CCC(O)C3)cc(-c3ccccc3)nc2c1C (centres undefined) | inactive | –
COc1ccccc1Nc1ccnc(N2CCC(NC(=O)C(C)C)CC2)n1 | inconclusive: 3.16 µM [cytotoxic, partial curve, poor fit] | –
COc1ccc(OC)c(S(=O)(=O)N2CCOCCNC(=O)[C@@H]3CCC[C@@H]32)c1 | inactive | –
COc1ccc(-c2ccc3c(c2)C(=O)N2C[C@@H](NS(=O)(=O)c4ccc(F)cc4)C[C@H]2C(=O)N3)c(OC)c1 | inconclusive: 14.1 µM [cytotoxic, partial curve, poor fit] | –
Cc1cccc(CSc2nc3c(c(=O)[nH]2)C(c2cccc(O)c2)CC(=O)N3)c1 (centres undefined) | – | inconclusive: 23.9%
CSc1ccc2c(c1)C(N1CCN(C)CC1)Cc1ccccc1S2 (centres undefined) | inconclusive: 20 µM [cytotoxic, partial curve, poor fit] | –
CCOC(=O)CNC(=O)NCC1CCC(=O)N(Cc2ccccc2)CC1 (centres undefined) | inactive | –
Cc1cccc(N2CCN(C(=O)C3CCCN(S(C)(=O)=O)CCC(=O)NCC3)CC2)c1 (centres undefined) | inconclusive: 2.51 µM [cytotoxic, full curve, poor fit] | –
Cc1oc(C(O)c2ccccc2)nc1C(=O)Nc1ccc2[nH]ccc2c1 (centres undefined) | inactive | –
O=C(Cn1ccn2nc(-c3ccccc3)c(CO)c2c1=O)NCc1ccc2c(c1)OCO2 | inactive | –
O=c1cnc2cnc(N3CCNCC3)nc2n1Cc1cccs1 | inconclusive: 8.91 µM [cytotoxic, full curve, poor fit] | –
O=C(Nc1ccccc1)c1ccc(Br)c(S(=O)(=O)N2CCCCC2)c1 | inconclusive: 39.8 µM [cytotoxic, single point] | –
COc1ccc(C(=O)NC2CCCN(Cc3ccc(-c4cccc(OC)c4)cc3)C2)cc1 (centres undefined) | inactive | –
CCn1ccc(C(=O)N2CCC(N3C[C@H](O)C[C@H]3C(=O)NC3CCCCC3)CC2)n1 | inconclusive: 8.91 µM [cytotoxic, single point] | –

SMILES | Potency | activity change, negative = cytotoxicity
COc1ccc(-c2noc([C@@H]3Cc4nc[nH]c4CN3C(=O)CCC(=O)O)n2)cc1 | inactive | –
CC1(c2ccccc2)N(Cc2ccc(O)cc2)C(=O)OC12CCN(Cc1ccc(C#N)cc1)CC2 (centres undefined) | inactive | –
NC(=O)[C@@H]1C[C@H](Oc2ccccc2)CN1C(=O)Cc1ccccc1 | inactive | –
Clc1ccc(Cn2c(Cc3ccccc3)nc3ccccc32)cc1 | inconclusive: 33.6 µM [rising, single point] | –
CN(Cc1ccccc1C(F)(F)F)C(=O)Nc1ccc(Cl)cc1 | inconclusive: 22.4 µM [cytotoxic, partial curve, poor fit] | –
CN(C)CCNC(=O)c1nc2nc(-c3ccccc3)c(Nc3ccc(F)cc3)cc2n1C | inconclusive: 28.2 µM [cytotoxic, partial curve, poor fit] | –
CCCCCC(=O)N1CCC(=O)N(CC(=O)OCC)c2ccccc2C(OC)C1 (centres undefined) | inconclusive: 3.98 µM [cytotoxic, single point] | –
COCc1cc(NCCCNc2cccnc2)ncn1 | inactive | –
CCn1cc(CN2CCCC(COc3ccccc3C(=O)N3CCCC3)C2)c2ccccc21 (centres undefined) | inconclusive: 31.6 µM [cytotoxic, single point] | –
COC[C@@H]1[C@H](C(=O)NCCCc2ccccc2)CCC(=O)N1C | inconclusive: 39.8 µM [cytotoxic, single point] | –
C=CCO[C@@H]1CCN2C(=O)c3cc(-c4ccc(F)cc4F)ccc3NC(=O)[C@H]12 | inactive | –
COC1CCC12CCN(C(=O)c1cccs1)CC2 (centres undefined) | inconclusive: 39.8 µM [cytotoxic, single point] | –
CCC(N)(CC)c1cn(CC2CCCN(C(=O)Nc3ccsc3)C2)nn1 (centres undefined) | inconclusive: 22.4 µM [cytotoxic, partial curve, poor fit] | –
COC(=O)c1ccc2c(=O)n(CCCCCC(=O)N3CCN(c4ccc(OC)cc4)CC3)c(=O)[nH]c2c1 | inconclusive: 12.6 µM [cytotoxic, partial curve] | –
COC(=O)[C@@H]1Cc2nc[nH]c2CN1Cc1ccc(NC(C)=O)cc1 | inactive | –
CCOc1ccccc1C1CC(=O)Oc2c1c(=O)n(C)c1ccccc21 (centres undefined) | inconclusive: 7.94 µM [cytotoxic, single point] | –
CCC(CC)C(=O)Nc1cccc(-c2nc3ccccc3s2)c1 | inconclusive: 0.224 µM [rising, full curve, poor fit] | –
Cc1cn2nnc(C(=O)NCCC3=CCCCC3)c2c(=O)[nH]1 | inconclusive: 3.55 µM [cytotoxic, single point] | –
CNC(=O)[C@@H]1C[C@H](Oc2cccnc2)CN1C(=O)c1ccco1 | inconclusive: 39.8 µM [cytotoxic, single point] | –
O=C(c1ccc2c(c1)OCO2)N1CCCC(n2cc(-c3nc(-c4ccccc4)no3)nn2)C1 (centres undefined) | inconclusive: 12.6 µM [cytotoxic, partial curve, poor fit] | –
CC(O)C1C(=O)N2C(C(=O)O)=C(SC3CNC(C(=O)N(C)C)C3)C(C)C12 (centres undefined) | inconclusive: 0.136 µM [cytotoxic, full curve, poor fit] | –
COc1ccc(NC(=O)N[C@H]2CO[C@H]3[C@@H]2OC[C@@H]3n2cc(-c3ccccc3)nn2)cc1 | inactive | –

SMILES | Potency | activity change, negative = cytotoxicity
COc1ccc(OC)c(CCNC(=O)c2cnn(-c3ccccc3)c2C2CCN(C(=O)OC(C)(C)C)CC2)c1 | inconclusive: 39.8 µM [cytotoxic, single point] | –
CCC(=O)Nc1cccc(OCC(=O)NCc2sc(C)nc2CC)c1 | inconclusive: 28.2 µM [cytotoxic, partial curve, poor fit] | –
CCc1ccccc1NC(=O)NCc1ccc2c(c1)CCN2C(=O)c1ccccc1 | inconclusive: 14.1 µM [rising, partial curve, poor fit] | –
CC(C)CCN1C(=O)CC[C@]2(C(=O)N(C)Cc3ccccc3)CCCC[C@@H]12 | inconclusive: 3.16 µM [cytotoxic, single point] | –
COc1ccc(CCNC(=O)Cn2cc(C(=O)c3ccc(F)cc3)c(=O)c3ccc(C)nc32)cc1OC | inconclusive: 15.8 µM [cytotoxic, partial curve, poor fit] | –
COCc1cc(C)nc2sc(C(=O)Nc3cc(C)ccc3F)c(N)c12 | inconclusive: 25.1 µM [rising, partial curve] | –
COc1ccc(CNC(=O)C2Cn3cccc3C(=O)N2C)cc1OC (centres undefined) | inconclusive: 7.08 µM [cytotoxic, single point] | –
O=c1c(-c2ccccc2)nc2cnc(Nc3ccccc3)nc2n1Cc1cccs1 | inconclusive: 2.82 µM [rising, full curve, poor fit] | –
CCC(C)n1cc(C)c2c(C(=O)NCc3c(C)cc(C)[nH]c3=O)cc(-c3ccc(N4CCNCC4)nc3)cc21 (centres undefined) | inconclusive: 4.23 µM [cytotoxic, single point] | –
COc1cccc(-c2cc(NCc3ccc4c(c3)OCO4)nc(N)n2)c1 | inconclusive: 0.119 µM [cytotoxic, full curve, poor fit] | –
C=C(C)C1=C[C@@]2(C)C(=CC1=O)CC[C@@H](O)[C@@H]2C | inconclusive: 18.9 µM [cytotoxic, partial curve, poor fit] | –
COc1ccccc1-c1cnc(Nc2ccc(Cl)cn2)c2c1CCO2 | inactive | –
CCN(CC)CCCCNc1ncc2cc(-c3c(Cl)cccc3Cl)c(NC(=O)NC(C)(C)C)nc2n1 | active: 15 µM | –
Cc1ccc(NC(=O)Nc2ccc(C)n(CC(=O)NCCC(C)C)c2=O)cc1 | inactive | –
COC[C@@H]1CN(Cc2c(F)cccc2Cl)C[C@H]1C(=O)NC1CC1 | inconclusive: 28.2 µM [cytotoxic, single point] | –
COc1ccc(-c2nc3c(c(-c4ccccc4)n2)CN(C(=O)c2ccccc2F)CC3)cc1 | inconclusive: 8.91 µM [cytotoxic, partial curve, poor fit] | –
CCOC(=O)c1cnc2ccc(Cl)cc2c1Nc1ccc(N2CCOCC2)cc1 | inactive | –
CCc1cccc(NC(=O)c2ccc(CNS(=O)(=O)c3ccc4c(c3)C(C)(C)C(=O)N4C)cc2)c1 | inconclusive: 39.8 µM [cytotoxic, single point] | –
CN(C)C[C@@H]1CN(c2ncccn2)C[C@H]1NC(=O)c1ccc(C#N)cc1 | inactive | –
O=C(COc1ccccc1)N1CCCC2(C1)Nc1cccnc1NC2=NCc1ccccc1 (centres undefined) | inactive | –
